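Five compound concentrations were applied to cells in 96-well plates for 48 hours; endpoints were derived by simple linear interpolation of the resulting dose-response curve. GI50: concentration for 50% inhibition of growth. The concentration for full growth arrest is given as TGI.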 Numbered stars: 1 amine (or outer) side, 2 acyl side, 3 side chain; on linkers, the order of the positions; unused ones are H or OH. Square brackets hold non-standard residues; d marks the D form. Peptide text beside a SMILES is read from it. * marks the point of attachment. X27 = CC(=O)N(C)SCC(N[*:1])C(=O)[*:2]; Cbz = O=C(OCc1ccccc1)*; Bn = c1ccc(C*)cc1; For = O=C*

This assay deals with NCI-H322M lung. Kind of assay: NCI-60 cell line screen, 48 h.
On to `CCOc1cc(NC(C)=O)ccc1C(=O)NN1C(=O)C(Cl)C1c1ccccc1` (stereo not given), for which the TGI came to 27.1 µM.
Regarding `c1ccc2[nH]c(-c3ccc(-c4nccc5c4[nH]c4ccccc45)cc3)nc2c1`, the GI50 is 2.86 µM and the TGI was found to be 8.9 µM.
As to `Cc1nn2c(/C=C3\C(=O)Nc4ccc(Cl)cc43)c(C)nc2s1`, the GI50 is greater than 100 µM and the TGI was greater than 100 µM.
In the case of `C/C(=N\NS(=O)(=O)c1ccc(C)cc1)C(CN1CCCCC1)C(c1ccccc1)c1c(O)c2ccccc2oc1=O` (stereo not given), the TGI is greater than 100 µM.
Same read-out and setting: under `CC(=O)CC(=O)OC1CC(C)CCC1C(C)C` (stereo not given) stands greater than 100 µM; under `O=C(Nc1ccc(Cl)cc1)c1cc2cc(N=Nc3ccccc3Cl)ccc2oc1=O`, 54 µM.
Still for that read-out and setting: under `C[C@]12CCC(=O)C=C1CC[C@@H]1[C@@H]2CC[C@]2(C)C(=O)NC(=O)C[C@@H]12` stands greater than 100 µM.
With `C=C1CCC2C3(C)COC(c4ccc(N(C)C)cc4)OC3CCC2(C)C1C/C=C1/C(=O)OCC1O` (stereo not given), the GI50 is 9.18 µM and the TGI came out at 23.2 µM.
`COc1ccc2nc3cccc([N+](=O)[O-])c3c(NCCCCCC(=O)O)c2c1`: the GI50 is 0.368 µM and the TGI came to 4.19 µM.
Compound `CCOP(=O)(OCC)/C(C#N)=C/c1ncc[nH]1` came in with a TGI greater than 100 µM.
Same read-out and setting: under `COC(=O)C1(CCC(C)=O)CCCCCC1=O` (stereo not given) stands greater than 100 µM; under `CCC1C2Cc3ccc(O)cc3C1(CC)CCN2C` (stereo not given), greater than 100 µM; under `Cn1cc(C(=O)NCCC(=N)N)cc1NC(=O)C1=[N+](C)C=C(NC(=O)c2cccc(C(=O)NC3=CC(C(=O)Nc4cc(C(=O)NCCC(=N)N)cn4C)=[N+](C)C3)c2)C1`, greater than 100 µM.
On to `CCOC(CN(C)C(=O)Nc1cccc2ccccc12)OCC`, for which the TGI is greater than 10 µM.
With `FC(F)(F)c1ccc(Nc2nc(-c3c(C(F)(F)F)nc4ccccn34)cs2)cc1`, the GI50 was 0.06 µM and the TGI stood at 11.8 µM.
`COc1cc([C@@H]2OC[C@@H]3C(c4cc(OC)c5c(c4)OCO5)OC[C@@H]32)cc(OC)c1OC` (stereo not given in full) displayed a TGI greater than 100 µM.
The same measure, in the same setting: under `O=C(O)c1nc2cc(C(F)(F)F)ccc2nc1Nc1ccc(F)cc1` stands greater than 100 µM; under `COC(=O)c1ccc(C)cc1CC1Cc2cc(C)ccc2C1=O` (stereo not given), greater than 100 µM; under `Cc1cc2ccccc2n2c1nc1ccccc12`, greater than 100 µM.
Still for that read-out and setting: under `CCCCCCCCCCCCCCCCCCNC(=O)C(N)Cc1ccc(OCc2ccccc2)cn1` (stereo not given) stands 42.8 µM.
As for `CCCCOC(=O)C1C2CCC(O2)C1C(=O)OCCCC` (stereo not given), the TGI was greater than 100 µM.
Same read-out and setting: under `CCc1cc(C(=O)OC)cn1C(=N)c1ccc(Cl)cc1` stands greater than 100 µM; under `c1ccc2c(c1)cc(C1NCCc3[nH]cnc31)c1ccccc12` (stereo not given), greater than 100 µM.
With `Cc1cc2c(cc1C)N(C(=O)CCl)CC(=O)N2`, the GI50 is 9.31 µM and the TGI came to 21.7 µM.
`COc1cc(OC(=O)c2ccccc2)cc2c1C(=O)C=CC2=O` displayed a TGI of 44.8 µM.
Turning to `CC(C)C1CC[C@@H](C)C[C@@]1(O)CC(N)=O` (stereo not given in full), the TGI was greater than 100 µM.
`COc1cc(CSc2nc3ccc(C)cc3c(=O)n2-c2ccccc2)cc(OC)c1OC`: the GI50 was 19.2 µM and the TGI was greater than 100 µM.
`CSc1nc(C#N)c(/N=C\N(C)C)n1C` returned a TGI greater than 100 µM.
With `Nc1ncnc2c1ncn2C=C=CCO`, the TGI was greater than 100 µM.
Still for that read-out and setting: under `CC(=O)OCC1=C(CCC#N)N2C(=O)C(NC(=O)Cc3cccs3)C2S(=O)C1` (stereo not given) stands greater than 100 µM; under `Cc1ccc(S(=O)(=O)OC2CSS(=O)CC2OS(=O)(=O)c2ccc(C)cc2)cc1` (stereo not given), 42.3 µM.
The same measure, in the same setting: under `O=C(ON=C1c2ccccc2C(Br)C(Br)c2ccccc21)c1cc([N+](=O)[O-])cc([N+](=O)[O-])c1` (stereo not given) stands 52.2 µM; under `COCCOC(=O)c1c(C)n([O-])c2cc(Cl)c(Cl)cc2[n+]1=O`, 69.7 µM; under `O=C1NC2ON=C(c3ccccc3)C2C2ON=C(c3ccccc3)N12` (stereo not given), greater than 100 µM.
In turn, `COc1cc2c(c(OC)c1OC)-c1ccc(SC)c(=O)cc1C(CO)C2` (stereo not given) returned a TGI of 0.822 µM.
On the same count and under the same terms, under `NC1=C(NC(=O)Cc2ccc(F)cc2)C(=O)c2ccccc2C1=O` stands greater than 100 µM.
`CC(C)[C@H](N)C(=O)N1CCC[C@H]1B(O)O`: the GI50 was greater than 100 µM and the TGI is greater than 100 µM.
`O=C([O-])C[n+]1ccccc1`: the TGI is greater than 100 µM.
Still for that read-out and setting: under `O=C1CCC2C(O)c3cc4c(cc3C(c3ccc5c(c3)OCO5)N12)OCO4` (stereo not given) stands greater than 100 µM; under `C=CCN1C(=O)/C(=C/c2ccc(OC)cc2)N=C1SC/C=C/C`, greater than 100 µM; under `O=C(c1cccs1)N(C(=S)N1CCN(c2ccccn2)CC1)c1ccccc1`, 75.8 µM.
The same measure, in the same setting: under `CCOC(=O)/C(C#N)=C\c1ccc(N(CCC(=O)O)CCC(=O)O)c(I)c1` stands greater than 10 µM; under `[N-]=[N+]=Nc1ccccc1C(=O)N1C(=O)c2ccccc2C(=O)N(C(=O)c2ccccc2N=[N+]=[N-])c2ccccc21`, greater than 100 µM.
For the compound `COc1ccc(/C(COc2ccc3c(=O)cc(-c4ccccc4)oc3c2)=N\O)cc1`, the GI50 is 5.56 µM and the TGI was 24.5 µM.
The compound `CN(CCCCCl)P(=O)(OCc1ccc([N+](=O)[O-])o1)OC[C@H]1O[C@@H](n2cc(F)c(=O)[nH]c2=O)C[C@@H]1O` (stereo not given in full) showed a TGI of 59.4 µM.
In turn, `Cc1csc2[n+]1C(=O)/C(=C\c1ccc([N+](=O)[O-])cc1)S2` came in with a TGI greater than 100 µM.
For `Cn1c2ccccc2n2c(N=O)c(-c3ccccc3)nc12`, the TGI turned out to be 61.3 µM.
`COc1cc(/C=C/C(=O)c2cccc(Nc3nc(Nc4ccccc4)nc(Nc4ccccc4)n3)c2)cc(OC)c1OC`: the GI50 is greater than 69.5 µM and the TGI is greater than 100 µM.
For `COc1ccc(C(=O)OC2C(OC3C(O)COC(O[C@H]4C[C@H]5[C@@H]6CC=C7C[C@@H](O)CC[C@]7(C)[C@H]6CC[C@]5(C)[C@H]4[C@H](C)C(=O)CCC(C)C)C3OC(N)=O)OCC(O)C2O)cc1` (stereo not given in full) the same measures were 1.71 µM and 6.3 µM.
On the same counts, the results for `Nc1c(C(=O)c2cccc(-c3ccncc3)c2)cnn1-c1ccc(F)cc1F` are greater than 19.2 µM and greater than 25 µM.
With `C[N+](C)(C)CC(=O)N/N=C/c1oc(-c2c(O)ccc3ccccc23)c(-c2c(O)ccc3ccccc23)c1[N+](=O)[O-]`, the TGI was 61.4 µM.
On the same count and under the same terms, under `C=Cc1ccc(C)[n+](C[Si](C)(C)O[Si](C)(C)C)c1` stands greater than 100 µM; under `Cn1cc2ccccc2c1-c1nc(F)nc(F)n1`, greater than 100 µM; under `CCOC(=O)NC(=O)c1cn(CCOC(=O)CCCCCCCCC(=O)OCCn2cc(C(=O)NC(=O)OCC)c(=O)[nH]c2=O)c(=O)[nH]c1=O`, greater than 100 µM.
Compound `O=C1/C(=C/c2cccc(F)c2)CCCc2ccccc21` displayed a TGI of 35.9 µM.
Take `O=C1Nc2ccccc2/C1=C/C(=O)c1coc2c1C(=O)c1ccccc1C2=O`: the GI50 was greater than 100 µM and the TGI is greater than 100 µM.
Compound `N#Cc1c(N)nc(-c2ccc(Cl)cc2)c2c1-c1ccccc1S(=O)(=O)CC2` returned a TGI greater than 100 µM.
On the same count and under the same terms, under `O=C(CN1CCCCC1)Nc1ccc2sc3ccccc3c(=O)c2n1` stands 43.8 µM.
`COc1ccc(-c2nc(-c3nc4ccc(OC)cc4[nH]3)c3ccccn23)cc1`: the GI50 is 3.22 µM and the TGI worked out at 10.6 µM.
In the case of `O=C(O)C(SC(=S)c1ccc(C(=S)SC(C(=O)O)c2ccccc2)cc1)c1ccccc1` (stereo not given), the TGI was greater than 100 µM.
`COc1ccc(-c2c[nH]c(C(=O)O)c2-c2cc(OC)c(OC)c(OC)c2)cc1`: the GI50 is 5.42 µM and the TGI was greater than 100 µM.
Compound `C=CCNC(=O)NC(=O)CSC1=NNC2(C(=O)N1)c1ccccc1-c1ccccc12` showed a TGI greater than 10 µM.
On the same count and under the same terms, under `Cc1cccc(C)c1NC(=O)C(C#N)C1=C(Cl)C(=O)c2ccccc2C1=O` (stereo not given) stands 30.2 µM.
For the compound `CCC[CH2][Sn]1([CH2]CCC)[O]C(=O)c2cccnc2[O]1`, the GI50 was 11.7 µM and the TGI came out at 23.9 µM.
As for `CC(C)Cn1cnc2c(NCC(C)O)nc3ccccc3c21` (stereo not given), the TGI is greater than 100 µM.
Still for that read-out and setting: under `Cn1c2ccccc2c2c(-c3ccccc3)cc3c(c21)C(=O)C=CC3=O` stands greater than 10 µM; under `CCOc1ccc(NC(=O)C(=O)CC(=O)c2sc(NNC(C)=O)nc2C)cc1`, greater than 100 µM; under `O=c1[nH]c2cc([N+](=O)[O-])ccc2nc1/C(=N/Nc1ccccc1)C(O)c1ccccc1Cl` (stereo not given), greater than 100 µM.
On the same count and under the same terms, under `O=c1oc2ccc3ccccc3c2cc1-c1cn2ccccc2n1` stands greater than 100 µM.
Same read-out and setting: under `O=c1[nH]c2cc(Cl)ccc2nc1/C(=N\O)C(O)c1cccc([N+](=O)[O-])c1` (stereo not given) stands greater than 100 µM; under `Cc1ccc2nc(NC(=O)C(=O)C(C#N)c3nc4ccccc4s3)sc2c1` (stereo not given), greater than 100 µM; under `CNc1ccc(C(=O)CC(O)CCC(C)C2OC(=O)CC(O)CC(=O)CC(O)CC(O)CC(O)CC(O)CC3(O)CC(O)C(C(=O)N4CCOCC4)C(CC(OC4OC(C)C(O)C(N)C4O)/C=C/C=C/C=C/C=C\C=C/C=C/C=C/C2C)O3)cc1` (stereo not given), 0.54 µM.
With `COC1=C(OC)C(=O)C(Cc2c(Cl)nc3sc(C)cn23)=C(C)C1=O`, the TGI was 34.7 µM.
Same read-out and setting: under `COc1cc2c(c(O)c1OC)-c1c(cc(OC)c(OC)c1OC)CC(C)C(C)C2` (stereo not given) stands greater than 100 µM; under `COc1ccc2[nH]cc(CCNC(=O)[C@H](Cc3ccccc3)NC(=O)[C@@H](NCC(F)(F)F)C(C)C)c2c1`, 61.6 µM; under `CNS(=O)(=O)NN(C)S(=O)(=O)c1ccccc1`, greater than 100 µM.
Same read-out and setting: under `CC(=O)N(C)SCC(NC(=O)C(Cc1ccccc1)NC(=O)OCc1ccccc1)C(=O)NC(Cc1ccccc1)C(=O)NC(Cc1cn(C=O)c2ccccc12)C(=O)NC(CCCCNC(=O)OCc1ccccc1)C(=O)NC(C(=O)NC(CSN(C)C(C)=O)C(=O)NC(C(N)=O)C(C)OCc1ccccc1)C(C)OCc1ccccc1` (stereo not given) (Cbz-F[X27]FW(For)K(Cbz)T(Bn)[X27]T(Bn)-NH2; configuration not given here) stands greater than 100 µM; under `CC(=O)C(=C(c1ccccc1)c1ccccc1)c1ccccc1`, greater than 100 µM.
Consider `Cc1c(C(N)=O)sc2c1C(=O)N(Cc1ccccc1)C1=NN=C(c3ccc(Cl)cc3)CN12`, for which the GI50 is 2.96 µM and the TGI turned out to be 17.5 µM.
Compound `COC(=O)C1(C)CCC(c2ccc(C)cc2)=C(CC(=O)O)C1` (stereo not given) showed a TGI greater than 100 µM.
Same read-out and setting: under `COC(=O)/C(C)=C(/CCC1(C)OCCO1)O[Si](C)(C)C` stands greater than 100 µM.
Consider `COC(=O)c1nc(-c2ccccc2)oc1S(=O)(=O)Cc1ccccc1`, for which the GI50 was 15.9 µM and the TGI was found to be 29.4 µM.

The record behind these values is PubChem BioAssay (NCI).
